Measured values: PubChem BioAssay AID624417 (National Center for Advancing Translational Sciences (NCATS), 2012)
The whole screen tested about 410,000 compounds, of which about 6,400 (1.6%) were called active. The shares of active, inactive and inconclusive entries below differ from those in the screen. Calls come from the whole dose curve; as a rule, active = well fitted inhibition curve with a large enough effect; inconclusive = small, poorly fitted or top-dose-only effect; inactive = no such curve, though single readings can be large or run the other way. No potency is given beside an inconclusive call; the fits are too rough.

biological target: Glucagon-like peptide 1 receptor (Homo sapiens) (UniProt P43220); assay: qHTS of GLP-1 Receptor Inverse Agonists (Inhibition Mode); conditions: HEK293 GLP-1R CRE-luciferase, luminescence, 24 h, GLP-1R form is constitutively active; activity change, negative = inhibition: at 38.3 µM (top of the series) unless noted; note: nearly all actives have a fitted effect of over 55% in size
Sequence of UniProt P43220 (P43220 whole entry, looked up): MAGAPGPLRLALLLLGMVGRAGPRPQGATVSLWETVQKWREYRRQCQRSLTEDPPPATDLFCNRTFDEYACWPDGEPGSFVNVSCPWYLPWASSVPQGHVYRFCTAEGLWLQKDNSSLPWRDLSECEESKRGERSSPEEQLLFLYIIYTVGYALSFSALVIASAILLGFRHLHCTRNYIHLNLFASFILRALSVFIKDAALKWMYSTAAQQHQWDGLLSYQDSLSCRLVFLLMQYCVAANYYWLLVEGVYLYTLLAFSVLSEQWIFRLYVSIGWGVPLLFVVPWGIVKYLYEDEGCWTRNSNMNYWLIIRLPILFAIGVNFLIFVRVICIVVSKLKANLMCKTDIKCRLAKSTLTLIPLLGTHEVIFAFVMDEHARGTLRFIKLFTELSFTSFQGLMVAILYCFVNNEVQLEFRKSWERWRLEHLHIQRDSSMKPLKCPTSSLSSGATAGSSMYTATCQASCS
In short: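 HEK293 cells stably co-expressing a cAMP-responsive luciferase reporter and constitutively active GLP-1R were seeded, incubated 12 h, then exposed to compounds for 24 h at 37 C. Luminescence was read 12 min after detection reagent; inverse agonists lower signal.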
% is set by controls: 0 for no effect and ±100 for the full control effect; potency is the fitted concentration of half-maximal effect; tags give direction and shape of the fitted curve.

Q: How did the Potency turn out when `CCOC(=O)c1ccc(NC(=S)N(CCCN2CCCC2)Cc2cccs2)cc1` was run?
A: active: 2.82 µM

Q: `CCOc1ccccc1C(=O)OCC(=O)Nc1cc(Cl)ccc1Oc1ccccc1` was tested. Which Potency did it give?
A: inconclusive [inhibitor, single point]

Q: How did the Potency turn out when `Cc1ccc(C(C)NC(=S)NC2CCCCC2)c(C)c1` (stereo not drawn) was run?
A: inconclusive [inhibitor, partial curve, poor fit]

Q: How did the Potency turn out when `CC(NC(=O)C1CCN(S(=O)(=O)c2ccc(Br)s2)CC1)c1ccccc1` (stereo not drawn) was run?
A: inconclusive [inhibitor, partial curve, poor fit]

Q: Which Potency does the source give for `O=C(Nc1ccccn1)c1cccc(S(=O)(=O)N2CCCc3ccccc32)c1` here?
A: inconclusive [inhibitor, partial curve, poor fit]

Q: Which Potency does the source give for `CC(C)CC(=O)Nc1ncc([N+](=O)[O-])s1` here?
A: inconclusive [inhibitor, single point]

Q: For `CCC1CCCN1Cn1cnc2c([nH]c3ccc(OC)cc32)c1=O` (stereo not drawn), which Potency is on record?
A: inactive

Q: For `Cc1cc(C)cc(Cn2c3ccc(NC(=S)NC4CCCCC4)cc3c(=O)n2C)c1`, which Potency is on record?
A: inconclusive [inhibitor, single point]

Q: How did the Potency turn out when `CCC1CCCCN1CCCNC(=O)C1CCC(CNS(=O)(=O)c2c(C)cc(C)cc2C)CC1` (stereo not drawn) was run?
A: inconclusive [inhibitor, partial curve, poor fit]

Q: For `Cc1cc(NC(=O)Nc2cc(Cl)sc2Cl)no1`, which activity change, negative = inhibition is on record?
A: inconclusive: -59.3% [inhibitor]

Q: How did the Potency turn out when `COc1ccccc1N1CCN(C(=O)COc2ccc(Cl)cc2)CC1` was run?
A: inconclusive [inhibitor, single point]

Q: Which Potency does the source give for `O=C(Cn1ccc2ccccc21)Nc1ccc2c(c1)OCO2` here?
A: inactive

Q: How did the Potency turn out when `CCN(CC)c1ccc(NC(=O)c2cc(CN3CCCC3)on2)c(C)c1` was run?
A: inconclusive [inhibitor, single point]

Q: Which Potency does the source give for `CCC(Oc1ccc(F)cc1)C(=O)Nc1cc(-c2ccc(C)cc2)no1` (stereo not drawn) here?
A: inconclusive [inhibitor, single point]

Q: For `CCOC(=O)N1CCC(NC(=O)c2oc3c(C)c(C)ccc3c2C)CC1`, which Potency is on record?
A: inconclusive [inhibitor, single point]

Q: Which Potency does the source give for `Cc1cc(C)c2nc(C(F)(F)F)nc(N3CC(C)OC(C)C3)c2c1` (stereo not drawn) here?
A: inactive

Q: `COc1cccc(CNC(=O)Nc2cc(C(=O)NCc3cccc(F)c3)ccc2N2CCCC2)c1` was tested. Which Potency did it give?
A: inconclusive [inhibitor, full curve]

Q: How did the Potency turn out when `Cc1nc(N2CCC(C(N)=O)CC2)c2c(-c3cccs3)csc2n1` was run?
A: inconclusive [inhibitor, full curve, poor fit]
